# Experimental data taken from paper PMC4336329 (PLoS ONE, 2015).
# Hit rate of the full screen: of about 310,000 compounds, about 14,000 (4.5%) showed an effect of 50% or more. Effects have a minus sign here. The list shows a part of the results.
# Molecular target: human ether-à-go-go-related gene (hERG) potassium channel (human, UniProt Q12809)
# Assay: primary screen, population patch clamp on CHO cells stably expressing hERG
# 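Also: peak tail current of the secondary pulse compared with the same well before compound.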
# Sequence of human ether-à-go-go-related gene (hERG) potassium channel (Q12809 whole entry, looked up): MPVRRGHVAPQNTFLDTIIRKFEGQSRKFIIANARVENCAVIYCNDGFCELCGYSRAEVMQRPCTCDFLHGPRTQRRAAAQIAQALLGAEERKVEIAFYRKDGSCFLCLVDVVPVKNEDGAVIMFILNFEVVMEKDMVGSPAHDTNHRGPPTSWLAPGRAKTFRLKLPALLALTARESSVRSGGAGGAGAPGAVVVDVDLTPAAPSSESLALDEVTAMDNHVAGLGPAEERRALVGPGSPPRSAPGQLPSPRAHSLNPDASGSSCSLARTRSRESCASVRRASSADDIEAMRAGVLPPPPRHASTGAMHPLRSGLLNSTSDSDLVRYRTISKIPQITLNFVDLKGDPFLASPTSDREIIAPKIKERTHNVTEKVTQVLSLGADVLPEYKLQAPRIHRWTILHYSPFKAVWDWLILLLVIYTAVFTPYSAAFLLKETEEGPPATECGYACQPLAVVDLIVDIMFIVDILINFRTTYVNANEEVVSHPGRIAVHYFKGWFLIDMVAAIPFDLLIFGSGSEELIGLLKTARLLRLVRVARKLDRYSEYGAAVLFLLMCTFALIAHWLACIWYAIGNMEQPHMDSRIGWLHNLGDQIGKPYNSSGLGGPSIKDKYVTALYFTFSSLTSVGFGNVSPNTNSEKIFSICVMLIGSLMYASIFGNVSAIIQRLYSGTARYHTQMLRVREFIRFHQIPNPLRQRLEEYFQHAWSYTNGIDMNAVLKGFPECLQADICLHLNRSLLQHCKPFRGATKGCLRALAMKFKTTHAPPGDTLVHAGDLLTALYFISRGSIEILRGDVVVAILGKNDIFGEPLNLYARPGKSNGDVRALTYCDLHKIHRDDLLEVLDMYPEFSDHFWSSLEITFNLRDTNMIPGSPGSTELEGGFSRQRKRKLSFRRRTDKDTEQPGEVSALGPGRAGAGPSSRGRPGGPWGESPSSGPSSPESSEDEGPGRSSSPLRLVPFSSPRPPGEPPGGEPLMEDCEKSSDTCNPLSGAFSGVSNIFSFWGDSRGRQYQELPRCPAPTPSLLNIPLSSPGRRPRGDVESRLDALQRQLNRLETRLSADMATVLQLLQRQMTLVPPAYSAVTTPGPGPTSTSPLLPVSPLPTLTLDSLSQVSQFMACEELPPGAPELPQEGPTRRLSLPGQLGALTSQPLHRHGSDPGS
row,Structure (SMILES),"hERG current change (%, negative = inhibition) at 10uM [%]"
1,CC(C)c1nnc(NC(=O)CN2C(=O)c3ccccc3C2=O)s1,-2.22
2,Cc1ccc(C)c(-n2sc3ccc(F)cc3c2=O)c1,14.7
3,COC(=O)CC1=NN(c2ccccc2)C(=O)/C1=C\c1ccc(OC)cc1,1.3
4,CCc1nc2ccc(C(=O)NC3CCC(C)CC3)cc2nc1CC (centres unmarked),-40.5
5,CC(=O)c1ccccc1NC(=O)c1ccc2c(c1)NC(=O)C(C)S2 (centres unmarked),-3.91
6,CCCN(CCC)S(=O)(=O)c1nc2nc(C)cc(C)n2n1,12.4
7,COc1cccc(C(=O)NN2CCOCC2)c1,-0.196
8,CC(NCc1cccc(S(=O)(=O)N(C)C)c1)c1ccc(F)cc1 (centres unmarked),-4.94
9,O=C(COC(=O)c1ccc[nH]c1=O)Nc1cc(S(=O)(=O)N2CCCCC2)ccc1Cl,7.9
10,Cc1ccc(S(=O)(=O)c2c(C)cc(C)nc2Oc2cccc(C(F)(F)F)c2)cc1,13.4
11,COC(=O)NNC(=O)C1CCC(C(=O)NNC(=O)OC)CC1 (centres unmarked),-2.6
12,Cc1c(/C=C2\NC(=O)NC2=O)c2ccccc2n1C,-11.4
13,Cc1cccc(C)c1N(CC(=O)NCc1ccco1)C(=O)CNS(=O)(=O)c1ccc(F)cc1,-5.63
14,COc1ccc(Cn2c(=O)[nH]c3cc(C(=O)NC4CCCC4)ccc3c2=O)cc1,15.1
15,O=C(N/N=C/c1ccncc1)c1ccc(NS(=O)(=O)c2cccs2)cc1,8.88
16,COc1cccc(C(=O)Cn2c(Br)nc3c2c(=O)n(C)c(=O)n3C)c1,-13.1
17,COc1ccccc1NC(=O)C1=C(C)Nc2ncnn2C1c1cccs1 (centres unmarked),12
18,CC(C)[C@H](NC(=O)c1ccccc1)C(=O)OCC(=O)c1ccc2c(c1)NC(=O)CO2,-26.3
19,CSc1nnc(C2CCNCC2)n1C.Cl,9.99

row,Structure (SMILES),"hERG current change (%, negative = inhibition) at 10uM [%]"
1,CN(Cc1ccccc1)C(=O)CSc1nc2ccccc2c(=O)n1Cc1ccco1,-3.56
2,CCN(C(=O)COC(=O)CCC(=O)c1cccs1)c1c(N)n(Cc2ccccc2)c(=O)[nH]c1=O,-4.97
3,CCCCNC(=S)NNC(=O)c1cc(-c2ccncc2)nc2ccccc12,23.6
4,O=C1/C(=C\c2cc3c(cc2Br)OCO3)N2CCC1CC2,7.62
5,CCC(c1nnnn1C(C)(C)CC)N(CCCN1CCOCC1)Cc1cc2cccc(C)c2[nH]c1=O (centres unmarked),-13.5
6,CCn1c(/C=C/c2ccc(F)cc2)nc2ccccc2c1=O,-5.52
7,CCOCCc1c(O)nc(SCC(=O)N2CCOCC2)[nH]c1=O,25.4
8,CC(=O)C(Sc1ccc2nnc(-c3ccc(F)cc3)n2n1)C(C)=O,8.13
9,CCC(=O)N1N=C(c2ccc(C)o2)CC1c1ccc(OC)cc1 (centres unmarked),1.57
10,COc1ccccc1N1CCN(C(=O)C(C)NC(=O)c2ccco2)CC1 (centres unmarked),16.1
11,O=C(Nc1cc(F)cc(F)c1)c1ccc(NCCc2ccccc2)c([N+](=O)[O-])c1,3.74
12,Cc1cc(NC(=O)CCC(=O)N(c2ccccc2)C(C(=O)NC2CCCC2)c2cccs2)no1 (centres unmarked),8.57
13,CCOC(=O)CCSCC(=O)N1N=C(c2cccs2)CC1c1ccc(C)cc1 (centres unmarked),3.43
14,CCCNC(=O)NC(=O)CSc1nncs1,35.1
15,O=C1c2cc(S(=O)(=O)N(CCO)CCO)ccc2-c2ccc(S(=O)(=O)N(CCO)CCO)cc21,18.7
16,CC(C)(C)C1CCC(OCC(O)CN2CCN(Cc3ccccc3)CC2)CC1.Cl (centres unmarked),-38.1
17,CC(C)NC(=O)c1cc(-n2cnnc2)ccc1Cl,15.1
18,CN(Cc1ccccc1)C(=S)Nc1ccc2nc3n(c(=O)c2c1)CCCCC3,-78.1
19,Cc1cccc(NC(=S)N/N=C2\CC(C)(C)Oc3ccc(O)cc32)c1,8.34

row,Structure (SMILES),"hERG current change (%, negative = inhibition) at 10uM [%]"
1,Cc1ccc(-n2nc(C)c3c2OC(N)=C(C#N)C3c2ccccc2F)cc1 (centres unmarked),7.64
2,COc1cc(/C=N/S(=O)(=O)CCc2ccccc2)ccc1O,7.45
3,O=C1CN(C(=O)N[C@@H](Cc2ccccc2)C(=O)N[C@@H](C(=O)O)c2ccccc2)c2ccccc2N1,19.1
4,CC(=O)N=c1sccn1CC(O)c1ccc(Br)cc1 (centres unmarked),10.9
5,O=C(CCc1nnc(-c2ccccc2)o1)NCC1CCN(C2CCCC2)CC1,-8.13
6,N/C(=N\NC(=O)c1cccs1)c1cc2ccccc2oc1=O,-1.68
7,Cc1cc(C)n(CC(=O)NCCC2=CCCCC2)n1,9.32
8,Cc1cc(C(=O)NC2CCCc3c2cnn3-c2ccccc2F)nc(C)n1 (centres unmarked),17.7
9,O=C(O)CC(c1ccc(Cl)cc1)N1Cc2ccccc2C1=O (centres unmarked),18.6
10,Cc1nc(N2CCc3ccccc3C2)[nH]c(=O)c1CCC(C)C,5.2
11,O=C(COc1ccc(Cl)cc1Cl)NN=C1c2ccccc2-c2ccccc21,9.15
12,Cn1c(=O)c2c(nc(NCC3CCCO3)n2C)n(C)c1=O (centres unmarked),8.74
13,Cc1ccc(C(=O)Nc2c(C)n(C)n(-c3ccccc3)c2=O)cc1S(=O)(=O)N1CCOCC1,0.249
14,Cc1ccc(Oc2nc3c(C)cccn3c(=O)c2/C=C(\C#N)C(N)=O)cc1,5.43
15,O/N=C(/CN(O)/C=C1/C=CC=N1)c1cccs1,7.04
16,CCCn1nc(NC(=O)COC)c2cc3cc(C)ccc3nc21,0.61
17,O=C(CCN=C1NS(=O)(=O)c2ccccc21)N1CCc2ccccc2C1,-21.9
18,CCOc1ccc(NS(=O)(=O)c2ccc(C(=O)NNC(=O)c3ccccc3O)cc2)cc1,12.6
